Measured values: PubChem BioAssay AID2147 (National Center for Advancing Translational Sciences (NCATS), 2009)
Hit rate of the full screen: of about 230,000 compounds, about 3,600 (1.6%) were called active. Inconclusive results, whose numbers are uncertain, are shown with a selection of clear calls. Calls come from the whole dose curve; as a rule, active = well fitted inhibition curve with a large enough effect (not every such curve was filed as active); inconclusive = small, poorly fitted or top-dose-only effect, or another doubt; inactive = no such curve, though single readings can be large or run the other way. A potency beside an inconclusive call is a rough fit, not a confirmed value.
Note: nearly all actives have a fitted effect of over 50% in size.
Potency is the fitted concentration of half-maximal effect; tags give direction and shape of the fitted curve.
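Throughout, for activity change, negative = inhibition: 0% = wells with enzyme and -100% = buffer wells without enzyme.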

Each compound was assayed against Lysine-specific demethylase 4E (Homo sapiens) (UniProt B2RXH2) (assay: qHTS Assay for Inhibitors of Human Jumonji Domain Containing 2E (JMJD2E)). Conditions: JMJD2E catalytic domain, FDH-coupled NADH fluorescence (FDH is formaldehyde dehydrogenase); series mostly up to 57.1 µM; activity change, negative = inhibition: at the top concentration.
Chain of UniProt B2RXH2 (B2RXH2 whole entry, looked up, the tested form may be a part): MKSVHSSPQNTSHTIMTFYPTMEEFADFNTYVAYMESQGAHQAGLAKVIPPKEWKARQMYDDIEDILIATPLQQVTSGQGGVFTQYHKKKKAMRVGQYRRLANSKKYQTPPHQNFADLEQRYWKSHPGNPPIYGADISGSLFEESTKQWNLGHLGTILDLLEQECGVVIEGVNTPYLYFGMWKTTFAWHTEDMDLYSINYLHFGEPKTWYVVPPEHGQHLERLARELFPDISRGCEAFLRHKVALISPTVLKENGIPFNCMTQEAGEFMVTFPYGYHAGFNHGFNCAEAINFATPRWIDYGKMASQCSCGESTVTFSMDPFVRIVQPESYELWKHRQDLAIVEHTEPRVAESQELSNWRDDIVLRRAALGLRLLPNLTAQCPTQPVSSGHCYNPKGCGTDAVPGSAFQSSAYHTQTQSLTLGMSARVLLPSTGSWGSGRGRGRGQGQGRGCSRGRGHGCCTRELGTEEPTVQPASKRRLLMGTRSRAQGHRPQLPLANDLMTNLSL
For O=C(Nc1cccc(NC(=O)c2ncn[nH]2)c1)c1cccc(Cl)c1, the “activity change, negative = inhibition” value was inactive: -5.85%. In the case of CN(C)Cc1c(O)ccc2c1O/C(=C\C=C\c1ccccc1)C2=O, the Potency is reported as inconclusive: 10 µM [inhibitor, partial curve]. For CCOC(=O)CSc1nc2cc(C(=O)N3CCCC3)ccc2c(=O)n1Cc1ccccc1, the “activity change, negative = inhibition” value was inactive: -7.92%. COc1ccc(S(=O)(=O)N2CCOCC2)cc1NC(=O)c1cc2c(s1)CCCC2 was tested, and the “activity change, negative = inhibition” value was inactive: -1.53%. For Cc1cccc(/C(N)=N/OC(=O)Cc2ccccc2)c1, the “activity change, negative = inhibition” value was inactive: -0.907%. In the case of O=C(CSc1nc2ncc(Cl)cc2[nH]1)N(Cc1ccccc1)C1CCS(=O)(=O)C1 (stereo unspecified), the “activity change, negative = inhibition” value is reported as inactive: -1.41%. COC(=O)c1ccc(C(NC(=O)OCc2ccccc2)/C(C)=C/[C@@H](C)C(=O)N2CCN(C)CC2)cc1 (stereo partly specified) was tested, and the “activity change, negative = inhibition” value was inactive: -3.53%. CC(C)(C)c1ccc(C(=O)Nc2ccc(N3CCOCC3)cc2)cc1 was tested, and the “activity change, negative = inhibition” value was inactive: -1.33%. For COc1ccc(/C=N/Nc2nc3ccccc3[nH]2)cc1OC, the “activity change, negative = inhibition” value was inactive: -4.7%. With COc1cc2c(cc1OC)C1Cc3ccc(OC)c(OC)c3CN1CC2 (stereo unspecified) the Potency was “inactive”. With O=C(c1ccc2c(c1)OCO2)C1CCCN(Cc2ccc3nsnc3c2)C1 (stereo unspecified) the Potency was inconclusive: 39.8 µM [inhibitor, single point]. Cc1nnc(NC(=O)CSc2ccc(-c3ccco3)nn2)s1 was tested, and the Potency was inconclusive: 28.2 µM [inhibitor, single point]. With CCCOC(=O)c1ccc(NC(=O)/C=C/c2cccs2)cc1 the Potency was inconclusive: 31.6 µM [inhibitor, single point]. With COc1cc(NC(=O)c2ccco2)c(OC)cc1NC(=O)c1cc(OC)c(OC)c(OC)c1 the Potency was inconclusive: 39.8 µM [inhibitor, single point]. For COc1ccc(OC)c(N(CC(=O)Nc2cccnc2)S(=O)(=O)c2ccc(C)cc2)c1, the “activity change, negative = inhibition” value was inactive: 0.981%. With Cc1cc(C)c2cc(C#N)c(NCCNC(=S)NCCCN3CCOCC3)nc2c1 the Potency was inconclusive: 28.2 µM [inhibitor, partial curve]. With COC(=O)c1c(NC(=O)CN2CCN(c3cccc(Cl)c3)CC2)sc(C)c1C the Potency was inconclusive: 31.6 µM [inhibitor, single point]. With CC(NC(=O)c1cc(F)c(F)cc1Cl)c1ccncc1 (stereo unspecified) the “activity change, negative = inhibition” value was inactive: 0.107%. In the case of CCOC(=O)C1CCCN(C(=O)Cc2ccc(Cl)cc2)C1 (stereo unspecified), the “activity change, negative = inhibition” value is reported as inactive: -9.79%. In the case of COc1ccc(CNCCC(c2ccccc2)c2ccc3c(c2)OCO3)cc1 (stereo unspecified), the “activity change, negative = inhibition” value is reported as inactive: 1.19%. With Cn1c(/C=C/c2ccc([N+](=O)[O-])o2)nc2ccccc2c1=O the “activity change, negative = inhibition” value was inactive: -11.3%. With O=c1c2ccccc2c(/C=N/n2cnnc2)c(O)n1-c1ccccc1 the Potency was inconclusive: 20 µM [inhibitor, partial curve]. In the case of CC1CCC(C(C)C)C(OC(=O)C[n+]2cccc(C(N)=O)c2)C1 (stereo unspecified), the “activity change, negative = inhibition” value is reported as inactive: 5.45%. With O=C(CSCc1ccc(Cl)cc1)Nc1ccccc1O the “activity change, negative = inhibition” value was inactive: 0.323%. CCOC(=O)C1=C(C)OC2(O)c3ccccc3C(=O)C12O (stereo unspecified) was tested, and the Potency was inconclusive: 14.1 µM [inhibitor, partial curve]. For COc1ccccc1-c1c(C)nn2c(N3CCCCCC3)cc(C)nc12, the Potency was inconclusive: 35.5 µM [inhibitor, single point]. With CCCCN(CC)C(=O)c1cc2cc3ccc(OC)cc3nc2o1 the Potency was inconclusive: 31.6 µM [inhibitor, partial curve]. With CN(C)c1ccc(C2Nc3ccccc3C(=O)N2CCN2CCNC2=O)cc1 (stereo unspecified) the Potency was inconclusive: 28.2 µM [inhibitor, partial curve]. For CC(Nc1cccc(F)c1)C(=O)Nc1ccc(S(N)(=O)=O)cc1 (stereo unspecified), the “activity change, negative = inhibition” value was inactive: 3.24%. Cc1cccc(NC(=O)c2cc(-c3ccco3)nc3ccccc23)n1 was tested, and the Potency was inconclusive: 28.2 µM [inhibitor, partial curve]. For Cc1ccc(SCc2noc(C(=O)NC(C)C)c2C(=O)O)cc1C, the “activity change, negative = inhibition” value was inactive: -13.4%. With Cc1ccc(/C=C/C(=O)N2CCN(S(=O)(=O)c3ccc(C)c(C)c3)CC2)o1 the Potency was inconclusive: 22.4 µM [inhibitor, partial curve]. For Cc1cc(Nc2ccccc2)c2c([N+](=O)[O-])c(C)cc(C)c2n1, the “activity change, negative = inhibition” value was inactive: 0.724%. COc1ccc(C)cc1-n1nnnc1SCc1cn2ccsc2n1 was tested, and the “activity change, negative = inhibition” value was inactive: -3.63%. With COc1cc(-c2nnc(SCC3(c4ccc(Br)cc4)OCCO3)o2)cc(OC)c1OC the Potency was inconclusive: 39.8 µM [inhibitor, single point]. Cc1cc(=O)oc2c1c(C)nn2-c1ccc(C(=O)OC(C)C)cc1 was tested, and the “activity change, negative = inhibition” value was inactive: 3.1%. With O=C(c1cc(NC(=O)C23CC4CC(CC(C4)C2)C3)cc(NC(=O)C23CC4CC(CC(C4)C2)C3)c1)N1CCCCC1 the “activity change, negative = inhibition” value was inactive: 10.9%. CSC1=NC(C)(C)C=C(/C=C/c2ccc(Cl)cc2Cl)N1 was tested, and the “activity change, negative = inhibition” value was inactive: -6.61%. With CC(=O)N1CC(=O)N=C1SCC(=O)Nc1nc(C)c(-c2ccccc2)s1 the Potency was inconclusive: 31.6 µM [inhibitor, single point]. In the case of O=C(/C=C/c1ccc2c(c1)OCO2)c1ccc(F)cc1, the Potency is reported as inconclusive: 39.8 µM [inhibitor, single point]. For CCOCCCN(C(=O)Cn1nnc2ccccc21)C(C(=O)NCc1ccco1)c1ccncc1 (stereo unspecified), the Potency was inconclusive: 25.1 µM [inhibitor, single point]. COC(=O)c1c(C)[nH]c(C(=O)/C=C/c2ccccc2)c1C was tested, and the Potency was inconclusive: 39.8 µM [inhibitor, single point]. In the case of O=C(Cc1n[nH]c(=O)c2ccccc12)Nc1ccc(-c2nnc3n2CCCCC3)cc1, the “activity change, negative = inhibition” value is reported as inactive: 6.69%. For COc1ccc2[nH]c(=O)c(-c3nnn(-c4ccccc4)n3)cc2c1, the Potency was inconclusive: 31.6 µM [inhibitor, partial curve]. In the case of CCC(=O)NC(c1ccc(C)cc1)c1cc([N+](=O)[O-])c2cccnc2c1O (stereo unspecified), the Potency is reported as inconclusive: 35.5 µM [inhibitor, single point]. With CCc1cccc2nc3c(c([Si](C)(C)C)c12)Cn1c-3cccc1=O the Potency was inconclusive: 31.6 µM [inhibitor, partial curve]. For COCCCn1c(-c2ccsc2)nc2c1c(=O)[nH]c(=O)n2Cc1ccccc1, the Potency was inconclusive: 31.6 µM [inhibitor, partial curve]. With COC(=O)c1c(NC(=O)Nc2ccc(Cl)cc2)sc(C)c1C the Potency was inconclusive: 31.6 µM [inhibitor, partial curve]. With Cc1ccc(C2C(C#N)=C(N)SC(N)=C2C#N)cc1 the Potency was inconclusive: 39.8 µM [inhibitor, single point]. In the case of CC(=O)Nc1cccc(/C(C)=N/NS(=O)(=O)c2ccc(C)cc2)c1, the Potency is reported as inconclusive: 0.0708 µM [inhibitor, partial curve, poor fit]. With NC(=O)c1cccn1Cc1cccc(Cl)c1 the Potency was inconclusive: 35.5 µM [inhibitor, single point]. With Cc1ccc(C2OC3=C(C(=O)CC(C)(C)C3)C(N)=C2C#N)o1 (stereo unspecified) the Potency was inconclusive: 39.8 µM [inhibitor, single point]. For CCOc1cc(N2CCOCC2)c(OCC)cc1NC(=O)c1ccc(OCc2c(C)noc2C)c(OC)c1, the Potency was inconclusive: 35.5 µM [inhibitor, single point]. In the case of CCOC(=O)c1c(NC(=O)c2cccs2)sc(C)c1CC, the Potency is reported as inconclusive: 31.6 µM [inhibitor, partial curve]. For Cc1cc(C)c2[nH]c(=O)c(CN(CC3CCCO3)C(=S)NCc3ccco3)cc2c1 (stereo unspecified), the Potency was inconclusive: 28.2 µM [inhibitor, single point]. In the case of O=C(COC(=O)C1CC(=O)N(Cc2ccco2)C1)c1ccc(OC(=O)c2ccco2)cc1 (stereo unspecified), the “activity change, negative = inhibition” value is reported as inactive: 2.78%. CCCS(=O)(=O)c1c(S(=O)(=O)CCC)c2c3ccccc3ccn2c1C(=O)OC was tested, and the Potency was inconclusive: 3.16 µM [inhibitor, partial curve]. CCOC(=O)c1cnc2ccc(C(=O)OC)cc2c1Nc1cccc(C(=O)O)c1 was tested, and the “activity change, negative = inhibition” value was inactive: -7.22%. For Cc1cccc(NC(c2ccc(O)cc2)c2ccc3ccc(C)nc3c2O)n1 (stereo unspecified), the Potency was inconclusive: 39.8 µM [inhibitor, single point]. With O=c1cc(-c2ccc3c(c2)OCO3)oc2ccccc12 the Potency was inconclusive: 7.08 µM [inhibitor, full curve]. For Cc1ccc(-c2nn(-c3cccc(F)c3)cc2CNCCc2ccncc2)o1, the Potency was inconclusive: 31.6 µM [inhibitor, partial curve]. O=C(NC1(C(F)(F)F)NC(=O)N(Cc2ccco2)C1=O)c1cccs1 (stereo unspecified) was tested, and the “activity change, negative = inhibition” value was inactive: -7.8%. For CCCCC(=O)OCCNC(=O)c1cc2ccccc2oc1=O, the Potency was inconclusive: 28.2 µM [inhibitor, single point]. Cc1ccc(OC(=O)COc2ccccc2)c(-n2nc3ccccc3n2)c1 was tested, and the Potency was inconclusive: 31.6 µM [inhibitor, single point]. In the case of NNC(=O)c1ccc(CSc2cccc3cccnc23)cc1, the Potency is reported as inconclusive: 31.6 µM [inhibitor, partial curve]. With Cc1c(C(=O)NC(C)C)oc2c1-c1[nH]ncc1CC2 the Potency was inconclusive: 25.1 µM [inhibitor, partial curve]. O=C(NC1CCN(Cc2ccccc2)CC1)c1ccc(Cn2c(=S)[nH]c3ccc(N4CCOCC4)cc3c2=O)cc1 was tested, and the Potency was inconclusive: 28.2 µM [inhibitor, partial curve]. For COc1cc(OC)c2c(O)c3c(c(-c4c5c(c(O)c6c(OC)cc(OC)cc46)CO[C@@H](C)[C@H]5O)c2c1)[C@H](O)[C@H](C)OC3, the Potency was inconclusive: 25.1 µM [inhibitor, single point]. With O=C(COC(=O)c1c2ccccc2cc2ccccc12)NCC(F)(F)F the Potency was inconclusive: 28.2 µM [inhibitor, partial curve]. In the case of COc1ccc(-c2cc(C(F)F)n3ncc(C(=O)N4CCSCC4)c3n2)cc1, the Potency is reported as inconclusive: 28.2 µM [inhibitor, partial curve]. With Cc1ccccc1OCC(=O)N(Cc1ccc(N(C)C)cc1)C1CCS(=O)(=O)C1 (stereo unspecified) the “activity change, negative = inhibition” value was inactive: -1.09%.
